Assay results as given in the antibiotic and cytotoxicity screens of Wong et al. (2023).
Some of the results follow.

Tested on: S. aureus RN4220
Assay: growth inhibition call (relative growth <= 0.2)
Conditions: 50 µM

For `CCCC#Cc1cnc2c(c1)C(=O)N([C@H](C)CO)C[C@@H](C)[C@@H](CN(C)S(=O)(=O)c1cn(C)cn1)O2`, which growth inhibition call is on record?
Its growth inhibition call is “inactive”.

Which growth inhibition call does the source give for `COc1ccc(NC(=O)N(C)C[C@@H]2OCCCC[C@@H](C)Oc3ccc(NC(=O)c4ccccc4)cc3C(=O)N([C@H](C)CO)C[C@@H]2C)cc1` here?
The growth inhibition call was “inactive”.

For `C[C@H](CO)N1C[C@H](C)[C@H](CN(C)Cc2ccc(Cl)c(Cl)c2)Oc2c(NS(=O)(=O)c3ccc(F)cc3)cccc2C1=O`, which growth inhibition call is on record?
The growth inhibition call was “inactive”.

With `Cc1cc(N2C(=O)CCC2=O)no1` as the molecule, how does the growth inhibition call read?
The growth inhibition call was “inactive”.

How did the growth inhibition call turn out when `CCS(=O)(=O)N1CCN(C[C@@H](C)O)CC1` was run?
Its growth inhibition call is “inactive”.

For `C[C@H](CO)N1C[C@H](C)[C@@H](CN(C)Cc2ccccc2)Oc2c(NC(=O)Nc3ccc(C(F)(F)F)cc3)cccc2C1=O`, which growth inhibition call is on record?
Its growth inhibition call is “inactive”.

`C[C@H](CO)N1C[C@H](C)[C@H](CN(C)Cc2ccc(C(=O)O)cc2)Oc2c(NC(=O)c3cnccn3)cccc2C1=O` was tested. Which growth inhibition call did it give?
The growth inhibition call was “inactive”.

With `C[C@@H]1CN([C@H](C)CO)C(=O)Cc2cc(N(C)C)ccc2O[C@@H]1CN(C)S(=O)(=O)c1cn(C)cn1` as the molecule, how does the growth inhibition call read?
The growth inhibition call was “inactive”.

`CC(=O)OCC(=O)C1CCC2C3CCC4=CC(=O)CCC4(C)C3CCC12C` (stereo not given) was tested. Which growth inhibition call did it give?
Its growth inhibition call is “inactive”.

How did the growth inhibition call turn out when `Nc1ccc([C@@H](O)[C@@H](O)CO)cc1` was run?
Its growth inhibition call is “inactive”.

With `CCCC(=O)Nc1ccc2c(c1)OC[C@@H](C)N(S(=O)(=O)c1cn(C)cn1)C[C@H](C)[C@H](OC)CN(C)C2=O` as the molecule, how does the growth inhibition call read?
The growth inhibition call was “inactive”.

How did the growth inhibition call turn out when `C[C@H]1CCCCO[C@@H](CN(C)S(=O)(=O)c2ccc(F)cc2)[C@@H](C)CN([C@@H](C)CO)C(=O)c2cc(NC(=O)C3CCCCC3)ccc2O1` was run?
Its growth inhibition call is “inactive”.

How did the growth inhibition call turn out when `C/C(=C/CC[C@@H](CO)[C@H]1CC[C@@]2(C)[C@H]3CC[C@@H]4C(C)(C)[C@H](O[C@H]5O[C@@H](CO)[C@@H](O)[C@@H](O)[C@@H]5O)C[C@H](O)[C@@]45C[C@@]35CC[C@@]12C)CO[C@H]1O[C@@H](CO)[C@@H](O)[C@@H](O)[C@@H]1O` was run?
Its growth inhibition call is “inactive”.

How did the growth inhibition call turn out when `C[C@H]1CN([C@@H](C)CO)S(=O)(=O)c2ccc(Br)cc2O[C@H]1CN(C)C(=O)NC1CCCCC1` was run?
Its growth inhibition call is “inactive”.

`O=C(O)[C@@H](O)Cc1ccc(O)c(O)c1` was tested. Which growth inhibition call did it give?
The growth inhibition call was “inactive”.

Which growth inhibition call does the source give for `C[C@@H]1CN([C@H](C)CO)C(=O)c2cccc(NC(=O)C3CCCCC3)c2O[C@@H]1CN(C)Cc1ccc(-c2ccccc2)cc1` here?
The growth inhibition call was “inactive”.

How did the growth inhibition call turn out when `COc1ccc(NC(=O)Nc2ccc3c(c2)C(=O)N([C@H](C)CO)C[C@@H](C)[C@H](CN(C)S(=O)(=O)c2ccccc2)OCCCC[C@H](C)O3)cc1` was run?
Its growth inhibition call is “inactive”.

How did the growth inhibition call turn out when `CCS(=O)(=O)N1CC[C@]2(CC1)CN([C@@H](CO)c1c2c2ccc(cc2n1C)OC)C(=O)Nc1c(noc1C)C` was run?
Its growth inhibition call is “inactive”.

With `CC(=O)OC1CC(C)(C)C(=C=C/C(C)=C/C=C/C(C)=C/C=C/C=C(C)/C=C/C=C(\C)C(=O)CC23OC2(C)CC(O)CC3(C)C)C(C)(O)C1` (stereo not given) as the molecule, how does the growth inhibition call read?
The growth inhibition call was “inactive”.

How did the growth inhibition call turn out when `CC(C)(O)CC(=O)NCCn1ccc2ncnc(Nc3ccc(Oc4cccc(C(F)(F)F)c4)c(Cl)c3)c21` was run?
The growth inhibition call was “active”.

Which growth inhibition call does the source give for `Cc1noc(C)c1NC(=O)N(C)C[C@H]1Oc2ccc(NS(=O)(=O)c3cn(C)cn3)cc2C(=O)N([C@@H](C)CO)C[C@@H]1C` here?
Its growth inhibition call is “inactive”.

Which growth inhibition call does the source give for `COc1ccc(cc1)CN1C[C@]2(CN(C2)C(=O)Cc2ccncc2)c2c([nH]c3cc(ccc23)OC)[C@@H]1CO` here?
The growth inhibition call was “inactive”.

For `Nc1nc(=O)c2ncn(COCCO)c2[nH]1`, which growth inhibition call is on record?
Its growth inhibition call is “inactive”.

Which growth inhibition call does the source give for `C[C@@H]1CCCCO[C@@H](CN(C)S(=O)(=O)c2ccccc2)[C@@H](C)CN([C@@H](C)CO)C(=O)c2cc(NS(=O)(=O)c3ccc(Cl)cc3)ccc2O1` here?
Its growth inhibition call is “inactive”.

Which growth inhibition call does the source give for `CC(C)NC(=O)N(C)C[C@@H]1Oc2cc(C#Cc3cccc(F)c3)ccc2S(=O)(=O)N([C@@H](C)CO)C[C@H]1C` here?
The growth inhibition call was “inactive”.

`CO[C@@H](CN(C)C(=O)c1ccccc1F)[C@H](C)CN([C@@H](C)CO)S(=O)(=O)c1ccc(Cl)cc1` was tested. Which growth inhibition call did it give?
The growth inhibition call was “inactive”.

Which growth inhibition call does the source give for `C[C@@H]1CN([C@H](C)CO)C(=O)c2cc(NC(=O)CCN3CCOCC3)ccc2O[C@H]1CN(C)S(=O)(=O)c1ccc(F)cc1` here?
Its growth inhibition call is “inactive”.

Which growth inhibition call does the source give for `C[C@@H]1CCCCO[C@@H](CN(C)Cc2ccc(C(F)(F)F)cc2)[C@H](C)CN([C@H](C)CO)C(=O)c2cc(NS(=O)(=O)c3cccs3)ccc2O1` here?
The growth inhibition call was “inactive”.

Which growth inhibition call does the source give for `C[C@@H]1CN([C@H](C)CO)C(=O)c2cccc(NS(=O)(=O)c3cccs3)c2O[C@@H]1CN(C)S(C)(=O)=O` here?
Its growth inhibition call is “inactive”.

For `CN1CCN(C(=O)C[C@H]2CC[C@H]3[C@@H](COC[C@H](O)CN3C(=O)C3CCCC3)O2)CC1`, which growth inhibition call is on record?
The growth inhibition call was “inactive”.
